Assay results from the supplement of paper PMC10126150.
Sequences with one replicate were seen in a single cluster, so their values are uncertain.

Tested on: ATP
Experiment: switch fluorescence ratio, 500 uM ATP over buffer (Cy3 cluster intensity, sum of 5 cycles each) (fold (ratio)); higher = stronger signal-on switching upon ATP binding; sequences stand for … in TCGTCGGCAGCGTCAGATGTGTATAAGAGACAGTTTTTTTTTTTTTTTTTTTTTTTTT…TC
Settings: aptamer strand: ATP DNA aptamer (quencher-CACCTGGGGGAGTATTGCGGAGGAAGG + anchor), 100 nM annealed; ATP concentration: 500 uM; one replicate
Procedure, shortened: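 The quencher-labelled ATP aptamer, at 100 nM, was annealed to Cy3-labelled switching-strand clusters on a modified Illumina MiSeq flow-cell. The clusters were imaged in selection buffer, then after 15 min with 500 uM ATP at 22 °C, and this buffer/ATP cycle ran five times with NaOH stripping and re-annealing between runs. Per-cluster fluorescence ratios, summed target-cycle over summed buffer-cycle Cy3 intensity, were averaged per switch-domain sequence. Clusters outside 100-1000 RFU were excluded.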
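Also: ATP exposure 15 min at 22 °C before imaging.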

Sequence	switch fluorescence ratio
TTGGACACT	1.01
AGATCGACCA	0.982
GGCCGAAAGG	1.01
GGTGATCTTG	1.05
AGTACGTATC	1.15
AACTGACTTT	1.06
AAAAAATTGA	1.01
GGGGACACG	1.02
GGGAAGGAAC	1.02
GTGAATTGTG	1
CTGATGGGAT	1.26
TCCGCAACGG	1.03
CTGATCGTGG	1.02
AGTGGCGGGC	1
CGGTTCGCTC	1.01
GGTACGAA	1.05
TCAGCTTCGT	1.03
GTAGTGCCGG	1.12
CTCTTCAATG	1.29
TGAATGACTT	1.07
GTCTGAAGTA	0.954
AGACCAGGGT	1.03
GGAAAATCCT	0.959

Sequence	switch fluorescence ratio
AAGACGGCCC	0.988
CTAGCCTGGG	0.985
CTTCGGACAT	1.1
CTCCTAAATT	1.26
TATCGGTGGG	1.01
CATCCGTTTT	1.78
GTTGTCGCGC	1.04
CCCTCTGTAC	2.99
CTCAGACGTA	1.01
TGCCCATACA	1.02
CTTCCACCGG	2.74
CCTTGCTTTA	1.23
AAACTATTGG	0.968
ACAACGGTCG	1.02
AAGGTATGGT	0.994
CCGAGTCTAT	3.89
TCGCCCCCGG	1.46
GATTACATTG	1.01
TAAAGCGAT	1.05
TTTCCGCTCG	1.08
GTTGGTTTGA	1
ATATCCATG	1.02
GAGTTTCTAC	0.951

Sequence	switch fluorescence ratio
ATCCGCTAAG	2.82
TTCAGAGT	0.961
TGGATACTGT	1.03
TGCCATTGCT	0.99
GCTAAAGGTT	0.982
ACGCTAAA	1.51
TTCCCTCTAT	1.01
CTAAGTAAGG	1.03
GCCCAATTGT	1.03
CGATTGTGAG	1.03
TATGCCAAGC	0.969
TTAAGTACTG	1.4
TAAAGTAACC	0.997
TCTGATACCG	0.997
ACCGCACAAG	1.46
CGGTATATTA	0.971
CTGATTAAAT	1.01
ACTTATTCAA	1.02
GGGATCATCT	0.987
CAGTTATATT	1.02
GACCTTGGAG	0.99
ATACCAAATC	1.01
GACGGGCCT	0.979

Sequence	switch fluorescence ratio
CGGCAATCGC	3.04
TCAAGCCATA	0.947
AGTACGTGCC	0.981
GTCATGATAT	0.986
AAGAAAGGG	0.973
CGGGTTGTAT	1
ACAGAGACTG	1.03
ACCCAATACC	3.21
GCCTTGTCGT	0.953
GCTAATTCTC	1.08
GGCGATCCGT	0.965
CACAGTTTCG	1.02
TATGGCAGTG	1.02
TAAGCTTGCA	0.949
TGAGAACTCT	0.96
CTCACTTAGT	1.07
GAGTTTGGAT	0.977
CGGCATTTGA	0.992
AACGTCATCG	1.02
TTATCTAGC	1
GCGGCTCTGT	0.984
CCTACTCATA	3.63
GATTGGAAAA	1.01

Sequence	switch fluorescence ratio
GAGTCCCTGC	1.09
CTGATGGTGC	1.44
GAGAGGTACG	1.02
ACAGTGGCTG	1.03
TTGAATGTAG	0.985
GTTCCAACAC	1.01
CAAGTTCCTG	1.03
GTCTGTTAAA	1.02
ACCCCCTTTG	1.32
TCAATAGTCG	1.06
TTTAAGAGGC	1.16
TCGTAGTATA	1.1
GCGCGAGTGA	1.02
TCGTATCTGA	0.971
GGCAGATCCT	0.988
TGGTGGTGG	1
TGAAGTCCGT	1.02
CTTGACTTGG	1.01
TTAGTGATGA	1.04
AGGGACCTTC	1.19
CTCAGTATGC	1.18
CTATCTGGGC	0.959
CCATCTAAAT	0.987

Sequence	switch fluorescence ratio
TTCTGTATTC	1
TGCTAACATT	1
TAGCTCCTGG	0.981
ATCAATTTTT	0.982
GGTAGAGAAC	1.08
CGCGTTCGG	1.03
TTAGTCGCTA	0.998
CAGGGATCCT	1.12
TCAGCAAGTA	1.05
GAATGCGATT	0.996
GTCCGGAGGT	1
AAAGTGGTTT	1.03
GCTCTCAAAC	1.72
ACATGCATAG	1.01
AAAGTACCGA	1.14
TCTAGGAGTG	0.969
TAGATCAATA	0.987
TGGGTTATT	0.989
ATTCCTTGC	1.53
GCGTCTAACA	0.97
CCGTAGAAT	2
CCCCGGCCAC	3.85
TGACGTATGT	1.01

Sequence	switch fluorescence ratio
TTCGCGGGTC	1.02
GCCAACACGT	1.02
CATCGATATG	0.994
CGACTTATTC	1.02
AGCCTAGGC	0.977
TTGTACTGGG	0.973
ATCAAGAAAC	1.04
GACAGGAAAA	1.06
TCGCACAGAG	1.04
TTTCCGAGAA	1.04
GTTACTTCA	0.986
GAGCGGGAGC	0.977
ACAGCCAAGT	1.06
CTAGCCACCA	0.957
AAAAGCCGGA	1.08
GCAATTCACG	1.27
GGAGGGAATC	1.01
GCTACTCGA	1.07
TACGGTTAAC	1.08
